The other results are listed elsewhere or left out. Sequences were assembled here from the parent chain. Inactive controls read about 0.05.
B1: TEV protease; numbered along this chain (parent)
chain: MGESLFKGPRDYNPISSSICHLTNESDGHTTSLYGIGFGPFIITNKHLFRRNNGTLVVQSLHGVFKVKDTTTLQQHLVDGRDMIIIRMPKDFPPFPQKLKFREPQREERICLVTTNFQTKSMSSMVSDTSCTFPSGDGIFWKHWIQTKDGQCGSPLVSTRDGFIVGIHSASNFTNTNNYFTSVPKNFMELLTNQEAQQWVSGWRLNADSVLWGGHKVFMVKPEEPFQPVKEATQL

Variants of: B1
Test: raw area under fraction-flipped curve 0-4 h after induction (AUC4h, not background-subtracted), DNA-recorder readout of cleavage of the substrate (dimensionless); higher = more cleavage of the substrate by the protease variant
Settings: temperature: 34 °C; time window: 0-4 h after rhamnose induction
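Note: Bxb1 expression induced with 0.2% (w/v) L-rhamnose at OD600 near 0.5, cultures sampled hourly, flipped fraction per protease–substrate barcode pair counted by paired-end Illumina sequencing.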

Variant | area with substrate ENLYFES | area with substrate ENLYFFS | area with substrate ENLYFIS | area with substrate ENLYFKS | area with substrate ENLYFMS | area with substrate ENLYFPS | area with substrate ENLYFTS | area with substrate ENLYFVS | area with substrate ENLYFWS | area with substrate ENLYFYS | area with substrate ENLYFCS | area with substrate ENLYFGS | area with substrate ENLYFNS | area with substrate ENLYFRS | area with substrate ENLYFSS | area with substrate ENLYFDS | area with substrate ENLYFHS | area with substrate ENLYFLS
S182A | 0.0636 | 0.0598 | 0.055 | 0.0601 | 0.0694 | 0.0567 | – | – | – | – | – | – | – | – | – | – | – | –
K66I | – | – | 0.0558 | 0.0782 | 0.0683 | 0.0611 | 0.0603 | 0.0627 | 0.0684 | 0.0539 | – | – | – | – | – | – | – | –
Q234R | 0.0658 | 0.0625 | 0.0598 | – | – | 0.0556 | 0.0585 | 0.0314 | – | 0.0681 | 0.0634 | 0.0454 | 0.0642 | 0.0593 | 0.0673 | – | – | –
Q234H | 0.0595 | 0.08 | – | 0.0575 | 0.0696 | 0.0574 | 0.0593 | – | – | – | 0.0485 | – | 0.0552 | – | – | – | – | –
D27T | – | 0.0621 | – | – | 0.0536 | 0.0772 | 0.0548 | 0.0573 | 0.0516 | 0.0711 | – | 0.0553 | 0.0729 | – | 0.0643 | 0.0452 | – | –
A207E | – | 0.0469 | 0.0606 | – | – | 0.0621 | 0.0211 | – | – | – | 0.0609 | – | 0.0695 | – | – | 0.0615 | 0.131 | –
A207Y | 0.0584 | – | – | – | 0.0633 | 0.0547 | 0.0704 | – | 0.0439 | 0.0568 | 0.0515 | – | – | 0.0564 | – | – | – | –
A207V | 0.0631 | 0.0646 | 0.0549 | 0.0892 | 0.0634 | 0.0712 | 0.0973 | 0.0098 | – | 0.0586 | 0.0473 | 0.0746 | 0.0575 | 0.0462 | – | – | 0.0555 | –
R204W | 0.0637 | 0.0665 | 0.0623 | 0.064 | 0.0697 | 0.0968 | 0.0536 | – | 0.0529 | 0.0532 | 0.0619 | 0.0766 | 0.0637 | 0.0524 | 0.0651 | – | 0.0513 | 0.0687
Q74F | 0.0584 | 0.0736 | 0.0476 | 0.0602 | – | 0.0571 | 0.0565 | – | 0.0488 | 0.0729 | – | – | 0.0591 | 0.0606 | – | 0.0586 | – | 0.0557
F95G | 0.0602 | 0.0586 | 0.0461 | – | 0.0364 | 0.0849 | – | – | 0.0309 | 0.0283 | – | – | – | 0.0412 | – | – | 0.0687 | –
N186W | 0.0679 | 0.0643 | 0.0522 | – | 0.0565 | 0.0613 | 0.0553 | – | 0.044 | – | – | – | – | 0.0541 | 0.0655 | 0.0692 | 0.0567 | –
V67M | 0.0637 | 0.035 | 0.058 | – | 0.0782 | 0.0511 | 0.0516 | – | 0.0562 | 0.0567 | – | 0.0326 | 0.0612 | – | – | – | 0.0708 | 0.0541
M122H | 0.0794 | 0.0592 | 0.0571 | – | – | 0.0514 | 0.0586 | – | 0.0603 | – | – | – | 0.0672 | 0.0612 | 0.0485 | 0.0618 | – | –
I42H | 0.056 | – | 0.0494 | 0.0447 | – | 0.0511 | – | 0.0456 | 0.0453 | – | – | – | – | 0.044 | 0.0426 | – | – | –
S127H | 0.0668 | 0.0788 | 0.0558 | – | 0.0699 | 0.0687 | 0.0562 | 0.0735 | 0.0536 | 0.0632 | – | – | 0.123 | 0.0644 | 0.0544 | 0.0568 | 0.0742 | –
K221D | – | 0.0729 | 0.0505 | – | 0.0623 | 0.0622 | – | 0.0546 | 0.0578 | 0.0685 | 0.0646 | – | 0.0562 | – | 0.0526 | – | 0.0603 | 0.0426
E3S | 0.108 | 0.0523 | 0.054 | 0.0518 | 0.0776 | 0.0726 | – | 0.0597 | 0.055 | 0.0428 | – | 0.0712 | 0.0739 | – | – | – | – | 0.0641
F180P | 0.0503 | – | 0.0437 | 0.0504 | 0.059 | – | – | 0.0467 | – | – | – | 0.0464 | 0.0566 | 0.0544 | – | – | – | 0.0577
N52R | 0.0604 | – | 0.0527 | 0.0636 | 0.0632 | 0.0572 | – | 0.0623 | – | 0.0614 | – | – | 0.0673 | – | 0.0457 | – | 0.0447 | –
D161H | 0.0613 | – | – | – | 0.0484 | 0.0589 | 0.0454 | – | – | 0.0338 | – | 0.0621 | 0.06 | – | – | 0.0461 | – | –
F140E | 0.0624 | 0.0688 | 0.0564 | 0.0636 | 0.0603 | 0.0615 | 0.0686 | 0.0691 | 0.0579 | – | – | 0.0606 | 0.0624 | 0.0504 | – | 0.069 | 0.0749 | 0.0607
G136M | – | – | 0.0668 | – | 0.0755 | 0.0576 | 0.0489 | – | 0.0517 | 0.0738 | – | 0.0627 | – | – | 0.0615 | – | – | –
S18I | 0.0745 | 0.0526 | 0.0443 | 0.0581 | 0.0648 | – | 0.0368 | 0.0526 | 0.0409 | – | – | 0.0686 | 0.068 | – | 0.0474 | 0.0486 | 0.0523 | –
Q194P | – | 0.0618 | 0.0626 | 0.0603 | 0.0545 | 0.0595 | 0.0513 | 0.0611 | 0.0394 | 0.0535 | – | – | – | 0.0576 | – | – | 0.0588 | 0.073
W141G | 0.0484 | 0.0607 | 0.0534 | 0.0395 | 0.0554 | 0.0595 | 0.0524 | – | 0.0496 | 0.0454 | – | – | 0.0687 | – | 0.0514 | – | 0.0561 | –
H143L | – | – | – | 0.0602 | 0.0583 | 0.0533 | 0.0548 | – | – | 0.0536 | – | – | 0.058 | – | 0.0896 | 0.0422 | 0.0617 | 0.0666
K100S | – | – | 0.0581 | 0.0369 | 0.119 | 0.0708 | 0.0809 | 0.0281 | – | 0.0606 | – | – | 0.0614 | 0.0671 | – | – | 0.0599 | –
C131S | – | 0.0499 | – | – | 0.0667 | – | – | – | – | 0.0551 | – | – | 0.0766 | 0.0588 | – | – | – | –
